Source: publication PMC4336329 (PLoS ONE, 2015)
Screen size: about 310,000 compounds; about 14,000 (4.5%) showed an effect of 50% or more. Effects have a minus sign here. The list shows a part of the results.

These molecules were tested against human ether-à-go-go-related gene (hERG) potassium channel (human, UniProt Q12809) (assay: primary screen, population patch clamp on CHO cells stably expressing hERG).
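Note: peak tail current of the secondary pulse compared with the same well before compound.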

Sequence of human ether-à-go-go-related gene (hERG) potassium channel (Q12809 whole entry, looked up): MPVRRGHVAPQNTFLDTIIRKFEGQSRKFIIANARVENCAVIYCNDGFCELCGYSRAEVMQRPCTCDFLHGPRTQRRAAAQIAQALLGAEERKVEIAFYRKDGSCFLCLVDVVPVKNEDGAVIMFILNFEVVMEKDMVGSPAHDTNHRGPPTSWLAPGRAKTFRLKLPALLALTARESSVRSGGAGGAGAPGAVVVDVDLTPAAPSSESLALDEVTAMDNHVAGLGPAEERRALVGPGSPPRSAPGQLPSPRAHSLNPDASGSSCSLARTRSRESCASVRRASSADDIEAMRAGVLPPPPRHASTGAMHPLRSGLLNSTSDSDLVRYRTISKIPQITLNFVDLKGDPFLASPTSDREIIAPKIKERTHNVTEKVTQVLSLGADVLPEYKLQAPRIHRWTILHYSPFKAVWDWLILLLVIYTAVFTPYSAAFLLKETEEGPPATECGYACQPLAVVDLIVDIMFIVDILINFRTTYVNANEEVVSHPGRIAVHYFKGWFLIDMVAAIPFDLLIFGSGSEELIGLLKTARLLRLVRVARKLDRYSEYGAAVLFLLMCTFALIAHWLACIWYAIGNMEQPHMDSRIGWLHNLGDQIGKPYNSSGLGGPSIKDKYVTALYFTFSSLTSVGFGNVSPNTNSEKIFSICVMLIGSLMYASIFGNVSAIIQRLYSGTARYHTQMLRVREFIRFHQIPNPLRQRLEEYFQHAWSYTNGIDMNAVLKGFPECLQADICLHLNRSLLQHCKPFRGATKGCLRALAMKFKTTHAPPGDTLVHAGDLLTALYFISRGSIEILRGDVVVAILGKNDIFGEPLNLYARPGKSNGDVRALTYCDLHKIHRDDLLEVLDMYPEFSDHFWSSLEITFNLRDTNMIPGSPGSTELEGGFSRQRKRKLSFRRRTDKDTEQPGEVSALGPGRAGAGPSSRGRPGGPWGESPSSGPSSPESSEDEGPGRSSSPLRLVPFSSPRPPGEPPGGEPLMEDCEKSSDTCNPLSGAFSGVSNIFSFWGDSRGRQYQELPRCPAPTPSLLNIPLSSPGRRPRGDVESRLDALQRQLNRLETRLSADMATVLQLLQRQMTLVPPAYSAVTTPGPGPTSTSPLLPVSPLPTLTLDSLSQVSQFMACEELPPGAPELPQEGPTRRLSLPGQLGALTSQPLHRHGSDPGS

Row | Compound | hERG current change (%, negative = inhibition) at 10uM [%]
1 | CSc1nsc(SCc2cnc(C)nc2N)n1 | 0.0826
2 | COc1ccc(OC)c(S(N)(=O)=O)c1 | 27.5
3 | N#Cc1ccc(CN2CCN(C(=O)c3cn(Cc4ccccc4)nc3-c3cccnc3)CC2)cc1 | -72.9
4 | COc1ccc(NC(=O)Nc2ccc3c(c2)OCO3)c(C)c1 | 17.3
5 | O=C(CCCn1c(SCC(=O)NCC2CCCO2)nc2ccccc2c1=O)NCc1ccccc1 (centres unmarked) | -29.6
6 | O=C(NC1CCOC1)c1cc(COc2cccc(C(F)(F)F)c2)on1 (centres unmarked) | 2.06
7 | COc1ccc(CNC(=O)c2cc(C3CC3)nc3c2cnn3C(C)C)cc1 | 3.16
8 | CCc1nc(C#N)c(N2CCOCC2)o1 | 2.54
9 | Cc1cc(C)c2c(=O)n(CC(=O)N3CCC(N4CCCCC4)CC3)sc2n1 | -14.6
10 | O=C(N/N=C/c1ccc([N+](=O)[O-])cc1)c1cccc(N2CCCC2=O)c1 | -20.7
11 | O=c1oc(-c2ccccc2NS(=O)(=O)c2ccc(Cl)cc2)nc2ccccc12 | 4.86
12 | CCc1c(C)sc(NC(=O)/C=C/c2ccc3c(c2)OCO3)c1C(=O)OC | 8.24
13 | Cc1c(NC(=O)c2cnn3c(C(F)(F)F)cc(-c4ccco4)nc23)c(=O)n(-c2ccccc2)n1C | 4.55
14 | COc1cc(CN2CCC(CO)(CCOc3ccccc3)CC2)cc(OC)c1 | -67.3
15 | Cc1cc(S(=O)(=O)NCCN2CCOCC2)ccc1Cl | 21.3
16 | CC(=O)c1ccc(OC(=O)c2ccc(-n3nc(C)cc3C)cc2)cc1 | -28.1
17 | Cc1ccccc1NC(=O)NC(C)(C)CC(C)(C)C | 25.4
18 | Cc1c(C(=O)N2CCN(c3ncccn3)CC2)oc2c(Cl)cccc12 | -20.2
19 | COC(=O)c1ccc2c(=O)n(CCN3CCOCC3)c(SCC(=O)NCc3ccccc3)nc2c1 | -46.1
20 | Cc1ccc2[nH]c(C)c(/C=C/c3cc[n+](C)cc3)c2c1.[I-] | 12.4
21 | Nc1nnc(SCC(=O)OCC(=O)Nc2ccccc2F)s1 | 5.55
22 | CCC(C)NC(=O)CSc1nnc(-c2c[nH]c3ccccc23)o1 (centres unmarked) | 12.8
23 | NC(=O)c1ccc(N=Nc2c(O)[nH]c(=O)[nH]c2=O)cc1 | -10.8

Row | Compound | hERG current change (%, negative = inhibition) at 10uM [%]
24 | Cc1cc(=O)[nH]c2c1c(C)nn2C(C)(C)C | 11.2
25 | C#CC(CC)(CC)NC(=O)Nc1ccccc1C(=O)OC | -11
26 | Cc1cc(NCCN2CCOCC2)n2ncc(-c3ccccc3)c2n1 | -11.7
27 | COc1ccc(Cn2nnnc2C(c2ccccc2Cl)N2CCC(C(N)=O)CC2)cc1 (centres unmarked) | -10.1
28 | COc1ccc(OCC(O)CNC(=O)c2ccccc2)cc1 (centres unmarked) | 9.92
29 | CC(=O)Nc1ccc(NC(=O)C2CCCN2C(=O)Nc2ccccc2[N+](=O)[O-])cc1 (centres unmarked) | -4.34
30 | COCC(=O)NC1CCN(S(=O)(=O)c2ccc(C(=O)O)cc2)CC1 | 4.32
31 | CC(=O)Nc1sc2c(c1C(N)=O)CCC2 | 7.4
32 | O=C(C1CCN(C2CC(=O)N(Cc3ccccc3)C2=O)CC1)N1CCCCCC1 (centres unmarked) | -6.53
33 | O=C(NCc1ccccc1Cl)C1CCCN(S(=O)(=O)c2cccc3nonc23)C1 (centres unmarked) | 7.19
34 | CCSC1=NC(C)(C)C=C(C)N1 | 0.798
35 | COCCN(CCOC)C(=S)Nc1ccccc1Cl | 6.62
36 | CCOC(=O)c1cnc(N2CCN(C(=O)OCC)CC2)[nH]c1=O | 27.3
37 | C=CCC1CCCC(=O)N2CC[C@H](O)C12 (some centres unmarked) | 4.45
38 | Cc1cc(C(=O)OCC(=O)Nc2cccc(S(=O)(=O)N(C)C)c2)c(C)o1 | 5.71
39 | Nc1cccnc1Oc1ccccc1F | 0.615
40 | COc1ccc(S(=O)(=O)N2CCOCC2)cc1NC(=O)CSc1nnc(C2CC2)n1C1CC1 | 2.57
41 | NC(=O)C1CCN(C(=O)c2ccc3c(=O)n(Cc4ccco4)c(SCC(=O)c4ccccc4)nc3c2)CC1 | 6.75
42 | CC(=O)Nc1ccc(NC(=O)CSC2=NS(=O)(=O)c3cc(F)ccc3N2)cc1 | 10.7
43 | CCN(Cc1ccccc1)C(=O)COC(=O)CNS(=O)(=O)c1ccc(C)cc1 | 2.03
44 | CCOC(=O)c1c(C)n(CC)c2c1cc(O)c1ccccc12 | 10.8
45 | CCCCn1c(SCC(=O)NC2CCCC2)nnc1-c1ccco1 | -54.8
46 | COC(=O)Cc1c(C)c2ccc(OCC(=O)N(C)C)cc2oc1=O | -0.937

Row | Compound | hERG current change (%, negative = inhibition) at 10uM [%]
47 | CCCCOc1ccccc1C1CC(=O)NC2=C1C(=O)CCC2 (centres unmarked) | -0.172
48 | CCOC(=O)N1C(=O)[C@](c2ccc(Cl)cc2)(C(C)C)N1C(=O)OCC | 1.42
49 | O=C(CN(C(=O)c1ccco1)c1cccc(F)c1)NCc1ccc(F)cc1 | -30.6
50 | Cc1ccccc1-n1c(SCC(=O)N/N=C/c2c(C)nn(-c3ccccc3)c2C)nc2ccccc2c1=O | 6.39
51 | Cc1cccc(N2C(=O)C(Cl)=C(N3CCOCC3)C2=O)c1 | 14.2
52 | COc1nc(OC)nc(N2CCC(C(=O)NCc3ccco3)CC2)n1 | -18.3
53 | Cc1ccc(OCC(=O)N2CCc3ccccc32)c([N+](=O)[O-])n1 | 4.59
54 | CCC(=O)N1CCc2cc(Br)cc(S(=O)(=O)N3CCC(C(=O)NC(C)(C)C)CC3)c21 | -16.7
55 | CCOC(=O)c1ccc(N2C(=O)C(C)=C(C)C2=O)cc1 | 1.22
56 | O=C(Nc1ccccc1N1CCOCC1)c1ccc2c(c1)C(=O)N(Cc1ccncc1)C2=O | -58.8
57 | COc1ccc2nc(SCC(=O)Nc3nonc3C)[nH]c2c1 | 3.59
58 | CCOC(=O)c1[nH]c2ccc(F)cc2c1NC(=O)Nc1ccccc1OC | 12.1
59 | CCOc1cc2c(cc1OCC)-n1cccc1C(c1ccccc1O)NC2.Cl (centres unmarked) | 6.1
60 | CC1(C)CC(=O)C(CC2CCCCC2=O)C(=O)C1 (centres unmarked) | 15.9
61 | Cc1ccc(SC[C@H](C)CN2CC[C@H](C)CCC2=O)cc1 | -23.5
62 | COc1ccc(S(=O)(=O)Nc2c(NC3CCCCC3)c3ccccc3oc2=O)cc1Cl | 9.14
63 | Cc1ccc(NC(=O)CN2CC(C)SC2=NC2CCCCC2)cc1.Cl (centres unmarked) | -40.6
64 | CSCC[C@H](NC(=O)Nc1cccc(C(F)(F)F)c1)C(=O)O | -0.0702
65 | Fc1ccccc1N1CCN(Cc2ccc3c(c2)OCO3)CC1 | -26.8
66 | CC(C)NC(=O)CC1C(=O)N(Cc2ccccc2)C(C)c2nc3ccccc3n21 (centres unmarked) | -4.36
67 | Cc1ccc(-n2nnnc2SCC(=O)NNC(=O)c2ccco2)c(C)c1 | -4.35
68 | Cn1nc(-c2ccc(Cl)cc2)c2cc(C(=O)N3CCN(C(=O)c4ccco4)CC3)sc21 | -20.7
69 | Cc1cccn2c(=O)c3cc(C(=O)N4COCC4(C)C)n(C)c3nc12 | 14.8

Row | Compound | hERG current change (%, negative = inhibition) at 10uM [%]
70 | O=C(Nc1ccccc1)N1CCCC(c2nc(-c3ccc(F)cc3)no2)C1 (centres unmarked) | -39.1
71 | COc1ccc(NC(=O)CCCN(C)S(=O)(=O)c2ccc(C)cc2)cc1 | -26.8
72 | Brc1ccc(Nc2nc3ccccc3n3nnnc23)cc1 | 21.9
73 | O=C(NNC(=O)c1ccccc1Cl)c1csc(N2CCOCC2)n1 | 16
74 | Cc1ccccc1C1=NCC(=S)Nc2ccc(Cl)cc21 | 0.98
75 | COc1cc(OC)c(C(=O)/C=C/c2ccc(OCc3ccccc3)c(OC)c2)c(OC)c1 | 21.4
76 | COCCn1cc(C(=O)c2cc(Br)ccc2O)cc(C#N)c1=O | 2.45
77 | Br.COc1cccc(C(=O)CN2C3=NCCCN3c3ccccc32)c1 | -68.1
78 | CCc1ccc(CNC(=O)c2ccc(OC3CCN(C(=O)COC)CC3)cc2)nc1 | -4.04
79 | COCC(C)n1c(SCC(=O)c2cc(C)n(C)c2C)nc2ccccc2c1=O (centres unmarked) | -3.25
80 | O=C(O)C1=CC2c3ccccc3C1c1ccccc12 | 17.4
81 | O=C1/C(=C\c2ccc(O)c(O)c2)N=C2CCCCCN12 | 2.71
82 | COC(=O)c1ccc(OCC2c3cc(OC)c(OC)cc3CCN2C(=O)c2ccco2)cc1 (centres unmarked) | -18
83 | COc1cccc(C2C(C(C)=O)=C(O)C(=O)N2CCNCCO)c1 (centres unmarked) | 28.5
84 | O=C(c1cc(-c2ccccc2O)on1)N1CCOCC1 | 5.23
85 | CN(C)S(=O)(=O)c1cccc(NC(=O)C(c2ccccc2)c2ccccc2)c1 | 16.8
86 | NC(=NC(=O)c1ccccc1)N1N=CCC1c1ccccc1 (centres unmarked) | 8.41
87 | Cc1ccc(S(=O)(=O)N(C)c2ccc(C(=O)NCC3CCCO3)cc2)cc1 (centres unmarked) | -16.7
88 | CCCCCC(=O)Nc1cc(S(=O)(=O)N2CCOCC2)ccc1N1CCN(C)CC1 | -11.3
89 | CCOc1cc(C2CC(=O)NC3=C2C(=O)C(C(=O)OC)C(C)C3)cc(Cl)c1O (centres unmarked) | 6.41
